Assay results taken from PubChem BioAssay AID1346428 (National Center for Advancing Translational Sciences (NCATS), 2018).
Values joined by “and” are separate entries in the source; they are usually repeats but may differ in a detail not shown here. Identical values can stand only once. Hit rate of the full screen: of about 48,000 compounds, about 1,200 (2.5%) were called active. Not shown: some 2% with an inconclusive outcome.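 How the source made its calls: active means activation of at least 60% and not above a set upper limit (about 1 call in 100 departs from these limits); inconclusive means activation of 40% to 60%, or above that upper limit; inactive means activation under 40%.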 The list shows a part of the results.

These compounds were tested against Probable G-protein coupled receptor 32 (Homo sapiens) (UniProt O75388) (assay: qHTS for Agonists of Human Resolvin D1 Receptor DRV1). Settings: CHO-K1 GPR32 beta-arrestin PathHunter luminescence, 90 min; at 76.9 µM; active compounds read high; zero percent set by DMSO-only wells.
Outline: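 Engineered CHO-K1 line co-expressing GPR32-ProLink and EA-beta-arrestin. Compound treatment lasted 90 min at 37 °C. Luminescence was recorded after 1 h with substrate at ambient temperature, relative to DMSO basal wells.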
Further: 0% is about no effect.

Chain of UniProt O75388 (O75388 whole entry, looked up): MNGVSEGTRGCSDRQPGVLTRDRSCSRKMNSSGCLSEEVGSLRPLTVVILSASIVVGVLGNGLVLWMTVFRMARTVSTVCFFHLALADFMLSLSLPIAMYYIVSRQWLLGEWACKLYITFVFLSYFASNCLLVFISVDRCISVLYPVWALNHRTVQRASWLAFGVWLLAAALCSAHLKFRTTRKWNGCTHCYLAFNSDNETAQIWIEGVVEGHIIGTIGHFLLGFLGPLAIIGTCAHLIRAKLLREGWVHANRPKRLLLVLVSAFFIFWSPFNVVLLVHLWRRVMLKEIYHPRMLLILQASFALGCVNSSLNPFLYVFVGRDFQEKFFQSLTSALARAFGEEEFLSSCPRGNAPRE

| SMILES | activation |
| --- | --- |
| CSc1ccc(C(=O)c2[nH]c(=O)[nH]c2C)cc1 | inactive: 17.9% and inactive: -0.502% |
| CCOC(=O)c1cc(-c2ccccc2)n(CCC(=O)Nc2ccc(C)cc2Cl)c1C | inactive: -14.4% |
| Cc1cc(C)cc(NC(=O)CCS(=O)(=O)c2ccc3nc(C)sc3c2)c1 | inactive: -7.16% |
| O=C1C(c2ccc(F)cc2)N(Cc2ccccc2Cl)C(=O)CN1C1CCCCC1 (stereo not drawn) | inactive: 3.84% |
| Cc1ccc(C(=O)N2CCC(N3CCN(Cc4ccc(F)cc4)C(=O)C3=O)CC2)cc1 | inactive: -9.96% |
| Cc1ccc(-n2nc(CO)c(C(=O)NCCCCc3ccccc3)n2)cc1 | inactive: -11.4% |
| CCOc1ccc(-c2nn(-c3ccccc3)cc2C2NC(=O)NC(C)=C2C(=O)OC(C)C)cc1C (stereo not drawn) | inactive: 14.7% |
| COc1ccc(CCNC(=O)CCCCn2c(=O)c3ccccc3n(Cc3ccc(Cl)cc3)c2=O)cc1OC | inactive: -3.68% |
| COc1cccc(CNC(=O)c2oc3ccc4c(c3c2C)C(=O)CC(C)(C)O4)c1OC | inactive: -24.3% |
| CCN(CC)CCn1c2c(c(SCC(=O)Nc3cccc(C(F)(F)F)c3)nc1=O)CCC2 | inactive: -8.26% |
| CCOc1ccc(-c2cn3c(n2)sc2cc(C(=O)NCCCN(CC)CC)ccc23)cc1 | inactive: -9.48% |
| Cc1cccc(CNC(=O)Cc2ccc(NC(=O)N3CCCCc4ccccc43)cc2)c1 | inactive: 0.356% |
| CCOC(=O)c1[nH]c(C)c(CCC(=O)NC(C)c2ccccc2)c1C (stereo not drawn) | inactive: -14.9% |
| O=C(Nc1cc2ccc(O)cc2oc1=O)c1ccc(F)cc1 | inactive: 5.26% |
| COc1ccc(CNC(=O)c2cc3c(=O)n4cccc(C)c4nc3s2)cc1 | inactive: -0.319% |
| CCOC(=O)c1ccc(NC(=O)C(C)N(c2ccc(OCC)cc2)S(C)(=O)=O)cc1 (stereo not drawn) | inactive: 19.2% |
| Cc1c(C(=O)Nc2ccc(F)c(F)c2)oc2ccc(S(=O)(=O)N(C)C3CCCCC3)cc12 | inactive: -2.44% |
| Cc1ccc(N(C)C(=O)Cn2cc(S(=O)(=O)N3CCCC3)c(S(=O)(=O)N3CCCC3)c2)cc1 | inactive: -0.743% |
| O=C(Nc1ccc(F)cc1)C1CCCN(c2ncnc3c2nc2n3CCCCC2)C1 (stereo not drawn) | inactive: -6.31% |
| COc1cccc(-c2nc(CS(=O)(=O)CC(=O)NCCc3ccc(OC)c(OC)c3)c(C)o2)c1 | inactive: -11.2% |
| C=Cc1ccc(CSc2nnc(C)n3c2cc2occc23)cc1 | inactive: 22.1% |
| COc1ccc(NC(=O)c2oc3c(c2C)-c2nn(Cc4ccccc4Cl)cc2CC3)cc1OC | inactive: -4.81% |
| Cc1ccc(-n2c(=O)c3c(cnn3C)n(CC(=O)Nc3c(C)cccc3C)c2=O)cc1 | inactive: -26.4% |
| Cn1c(=O)c2c(n3ncnc13)NC(=O)CC2c1cccc(F)c1 (stereo not drawn) | inactive: -19.5% |
| COc1ccc(NS(=O)(=O)c2ccc3c(c2)CC(C)N3C(C)=O)c(OC)c1 (stereo not drawn) | inactive: 21.4% |
| CCOC(=O)C1=C(CN2CCN(c3cccc(OC)c3)CC2)NC(=O)NC1c1ccc(OC)cc1 (stereo not drawn) | inactive: -18.2% |
| COc1ccc(CNC(=O)C2CCN(c3nnc(-n4cccc4CNc4ccc(C)cc4)s3)CC2)c(OC)c1 | inactive: -30.2% |

| SMILES | activation |
| --- | --- |
| Cc1ccccc1-n1c(=O)c2c3c(sc2n2cnnc12)CCCC3 | inactive: 13.4% |
| Cc1ccc(S(=O)(=O)c2nc(-c3cccc(C)c3)oc2N2CCCCC2)cc1 | inactive: -33.3% |
| O=S(=O)(c1ccc(F)cc1)N1CCC(n2c(C(F)(F)F)nc3cccnc32)CC1 | inactive: -8.59% |
| O=S(=O)(Nc1cccc(-c2ccc(N3CCCC3)nn2)c1)c1ccc(F)cc1F | inactive: -18.8% |
| COc1ccc(N2CCN(C(=O)CN(C)S(=O)(=O)c3cccs3)CC2)cc1 | inactive: 15.5% |
| COc1ccc(NC(=O)CSc2c3c(nc4ccccc24)CCC3)c(OC)c1 | inactive: -11.5% |
| CCN(CC)C(=O)Cn1c(=O)cc(C)c2c(C)nn(C)c21 | inactive: 6.06% |
| CCOC(=O)c1ccccc1NC(=O)c1sc2ccccc2c1Cl | inactive: 3.09% |
| COc1ccc(-c2cn3nc(N4CCCC(C(=O)NCc5ccccc5C)C4)sc3n2)cc1 (stereo not drawn) | inactive: -26.2% |
| COc1cccc(Nc2sc(C(=O)c3ccc(F)cc3)c(N)c2C(=O)NCc2ccc(C)cc2)c1 | inactive: -30.4% |
| COc1ccc(Cn2ccnc2SCC(=O)Nc2cc(C(F)(F)F)ccc2Cl)cc1 | inactive: -27.5% |
| COc1cc(CNc2ccc3c(c2)ncn3C(C)C)cc(OC)c1OC | inactive: -19.8% |
| O=C(CN(CCc1ccccc1)S(=O)(=O)c1ccccc1)NCc1ccc(Cl)cc1 | inactive: -10.6% |
| COc1cccc(NC(=O)CSCn2nnc3c(=O)[nH]c(Cc4ccc(F)cc4)nc32)c1 | inactive: 5.2% |
| O=C(Nc1ccccc1Cl)C1CCN(c2nc3ccccc3[nH]2)CC1 | inactive: -15.9% |
| Cc1ccc(Cl)cc1N1CCN(C(=O)c2cc(S(=O)(=O)N3CCCCCC3)cn2C)CC1 | inactive: -1.2% |
| Cc1cc(Cl)ccc1Nc1ncnc2onc(C)c12 | inactive: 3.65% |
| O=C(CSc1nc2c([nH]c3ccccc32)c(=O)n1-c1ccccc1F)Nc1ccccc1C(F)(F)F | inactive: -55.2% |
| COC(=O)c1ccc2c(c1)N(CC(=O)Nc1cccc(C(F)(F)F)c1)C(=O)c1ccccc1S2 | active: 107% |
| COc1ccc(NC(=O)C2CCCN(S(=O)(=O)c3ccc4c(c3)CCCN4C(C)=O)C2)cc1 (stereo not drawn) | inactive: -6.14% |
| Cc1ccc(-c2cc3c(n2-c2ccccc2F)CC(C)(C)CC3=O)cc1 | inactive: -3.36% |
| O=C1CC(c2nnc(Cc3ccccc3Cl)o2)CN1c1ccccc1 (stereo not drawn) | inactive: -13.7% |
| O=C(CC1C(=O)N(c2ccccc2)C(=O)N1Cc1ccc2c(c1)OCO2)Nc1ccccc1 (stereo not drawn) | inactive: 7.9% |
| Cc1c(C)n(Cc2ccc(F)cc2)c2ccc(C(=O)Nc3ccc(Cl)cc3)cc12 | inactive: 4.7% |
| CCOC(=O)c1ccc(CN(Cc2ccccc2C)S(=O)(=O)c2ccc(F)c(C(=O)Nc3cccc(OC)c3)c2)cc1 | inactive: -24.1% |
| COc1ccc(NC(=O)c2oc3ccccc3c2NC(=O)Cc2cccs2)cc1 | inactive: -9.37% |
